We go through one molecule from patent US20170043031A1, “IGF-1R ANTIBODY-DRUG-CONJUGATE AND ITS USE FOR THE TREATMENT OF CANCER” (PIERRE FABRE MEDICAMENT, priority 2014, published 2017).

Where “and” joins values, the source holds several entries; their conditions need not be identical. Equal values may be shown once.

For assay [1], the system named is Human Pulmonary Microvascular Endothelial Cells (HPMEC). As to the kind of experiment: FACS binding of c208F2 on primary normal cells. Conditions: 10 μg/ml of c208F2, HPMEC. The method, then:
(§1) The expression levels of IGF-1R were evaluated on primary normal cells (PromoCell GmbH) using c208F2 mAb. For that purpose, cells (0.5×10^6 cells/ml) were incubated with 10 μg/ml of c208F2 antibody for 20 min. at 4° C. in FACS buffer (PBS, 0.1% BSA, 0.01% NaN3). They were then washed 3 times and incubated with the appropriate secondary antibody coupled with Alexa 488 for 20 additional minutes at 4° C. in the dark before being washed 3 times in FACS buffer. The binding of anti-IGF-1R antibody was immediately performed on viable cells which were identified using propidium iodide (that stains dead cells). The expression level (Bmax) was low on normal cells (Table 14) compared to IGF-1R expression on MCF-7 cells (see example 2, table 8).
Background: Flow cytometry measures light scatter and fluorescence of single cells or particles in a stream.

The test system of assay [2] is Human Renal Epithelial Cells (HREpC). As to the kind of experiment: FACS binding of c208F2 on primary normal cells. As to conditions: 10 μg/ml of c208F2, HREpC. As for the experimental part: as §1
The test system of assay [3] is Human Aortic Endothelial Cells (HAoEC). As to the kind of experiment: FACS binding of c208F2 on primary normal cells. Conditions: 10 μg/ml of c208F2, HAoEC. The method, then:
as §1

Assay [4] deals with Human Urethelial Cells (HUC). As to the kind of experiment: FACS binding of c208F2 on primary normal cells. Conditions: 10 μg/ml of c208F2, HUC. As for the experimental part: as §1
For assay [5], the system named is Human Bronchial Smooth Muscle Cells (HBSMC). The experiment in a line: FACS binding of c208F2 on primary normal cells. As to conditions: 10 μg/ml of c208F2, HBSMC. The method, then: as §1
For assay [6], the target named is T1, soluble recombinant human IGF-1R (Homo sapiens, UniProt P08069).
T1 construct: composed of 2α chains and the extracellular domains of 2β chains; purchased R&D Systems 305-GR-50
As to the kind of experiment: Biacore X100 single cycle kinetics, around 160 RU captured antigen (Example 4). The class given is binding. As to conditions: IGF1R human. As for the experimental part: (§2) The recognition experiments were run on a Biacore X100 device using a CM5 sensor chip activated by an anti-Tag His antibody (His capture kit GE Healthcare catalogue number 28-9950-56). More than 11000 RU of antibodies are chemically grafted on the carboxymethyldextan matrix using the amine kit chemistry. The experiments were carried out at 25° C. with a flow rate of 30 μl/min using the HBS-EP buffer (GE Healthcare) as the running and sample dilution buffer.
(§3) A solution of a soluble recombinant version of the IGF-1R hetero-tetramere composed of 2α chains and the extracellular domains of 2β chains expressed with an additional C-terminal 10-His tag, based either on the sequence of the human (R&D Systems catalogue number 305-GR-50) or of the one of cynomolgus (produced in house) was injected 1 minute on the second flowcell at a dilution defined to capture around 160 RU of antigen. After the capture phase, either the running buffer was injected 5 times (90 s each injection) or a growing range of 5 concentrations of c208F2 were injected (90 s each injection) on both flowcells. At the end of the fifth injection the running buffer was passed in order to define the dissociation rate.
(§4) The surface was then regenerated with an injection of a 10 mM Glycine, HCl pH 1.5 buffer during 30 s.
(§5) The computed signal corresponds to the difference between the response of the flowcell 2 (with captured IGF-1R) and the response of the flowcell 1 (without any IGF-1R molecules) (FIG. 6).
(§6) For each IGF-1R molecule (human or cyno), the signal due to the injections of the growing range of concentrations of c208F2 was corrected by subtraction of the signal obtained with the 5 injections of the buffer (double reference). The resulting sensorgrams were analysed using the Biaevaluation software with a 1:1 model. The kinetic rates are evaluated either independently (2 kinetics rates of the binding of c208F2 on each IGF-1R) or commonly (the same kinetic rates of the binding of c208F2 on the human and the cynomolgus IGF-1R). The quality of the fitting was assessed by a Chi2/Rmax ratio lower than 0.05 RU.
A general note: In SPR one partner is held on a chip, and binding of the other changes the refractive index at the surface.

Assay [7] concerns soluble recombinant cynomolgus IGF-1R. The description is as above. As to conditions: IGF1R cynomogus. In kind it is binding. As for the experimental part:
as §2, §3, §4, §5, §6

The target in another assay is T2, IGF-1R on MCF-7 cells (Homo sapiens, UniProt P08069).
T2 construct: all generated antibodies are capable to recognize the native IGF-1R form; host or cells: MCF-7
The experiment in a line: IGF-1R internalization by FACS on MCF-7 cells (4° C. vs 37° C., 4 h). As to conditions: MCF-7, chimeric antibodies; read-out: ΔMFI_EC50. In kind it is cell-based. As for the experimental part: (§7) MCF-7 cells were incubated with 10 μg/ml of chimeric antibodies at 4° C. for 20 min. Then, cells were washed and incubated at 4° C. or 37° C. for 4 h. The quantity of cell-surface bound antibody was determined using a secondary antibody. The ΔMFI defined as the difference between MFI measured at 4° C. and MFI measured at 37° C. after a 4 hour incubation time corresponded to the quantity of internalized Ab. The percentage of internalization at 10 μg/ml of Ab were calculated as followed 100*(MFI at 4° C.−MFI at 37° C.)/MFI at 4° C. and presented in Table 11.
as §7, with “The capacity of the mAb hz208F2 VH3NL3 to be internalized was assessed by flow cytometry. MCF-7” for “MCF-7”, “of” for “of chimeric”, “13.” for “11.”
as §7, with “of humanized” for “of chimeric”, “secondary antibody on a FacsCalibur Flow cytometer (Becton Dickinson).” for “secondary antibody.”, “Ab was” for “Ab were”, “C. The humanized antibody hz208F2 H077/L018 is able to induce a significant internalization of IGF-1R.” for “C. and presented in Table 11.”

Assay [8] deals with human and the cynomolgus IGF-1R. The experiment in a line: Biacore X100, common fit of both sensorgrams (Example 4). In kind it is binding. Conditions: Hum. & Cyno., same kinetic rates fitted. As for the experimental part: The recognition experiments were run on a Biacore X100 device using a CM5 sensor chip activated by an anti-Tag His antibody (His capture kit GE Healthcare catalogue number 28-9950-56). More than 11000 RU of antibodies are chemically grafted on the carboxymethyldextan matrix using the amine kit chemistry. The experiments were carried out at 25° C. with a flow rate of 30 μl/min using the HBS-EP buffer (GE Healthcare) as the running and sample dilution buffer. […]
as §6

B1: c208F2: chimeric 208F2 antibody, heavy chain SEQ ID No. 23, light chain SEQ ID No. 28 (antibody)
heavy: QVQLQQSGPELVKPGASVKMSCKASGYTFTSYYIYWVKQRPGQGLEWLGWIWPGDGSTKYNEKFKDKTTLTADKSSNTAYMFLSSLTSEDSAVYFCASPMITPNYAMDYWGQGASVTVSSASTKGPSVFPLAPSSKSTSGGTAALGCLVKDYFPEPVTVSWNSGALTSGVHTFPAVLQSSGLYSLSSVVTVPSSSLGTQTYICNVNHKPSNTKVDKRV[human IgG1 Fc not written out]
light: DIQMTQTTSSLSASLGDRVTISCRASQDISKYLNWYQQQPDGTIKLLIYYTSRLHSGVPSRFSGRGSGTDYSLTISNVEQEDIATYFCQQGSTLPYTFGGGTKLEIKRTVAAPSVFIFPPSDEQLKSGTASVVCLLNNFYPREAKVQWKVDNALQSGNSQESVTEQDSKDSTYSLSSTLTLSKADYEKHKVYACEVTHQGLSSPVTKSFNRGEC
modifications: c208F2, heavy chain, full length; c208F2, light chain, full length
B1: the Bmax was 33 in assay [1]; 110 in [2]; 21 in assay [3]; 181 in assay [4]; 26 in assay [5]. Besides, the off-rate constant (koff) (usually a measure of how fast the partners let go of each other) in assay [6] (25° C., 1:1 model) amounted to 0.00034 s⁻¹; in [7] (25° C., 1:1 model), 0.00031 s⁻¹; in assay [8], 0.000333 s⁻¹. Further, the Kd (commonly the equilibrium constant for the complex coming apart) was ~0.2 nM and 0.23 nM in [6] (around 160 RU captured); ~0.2 nM and 0.17 nM in assay [7] (around 160 RU captured); 0.22 nM in assay [8]. For the same molecule, the EC50 in the assay with IGF-1R on MCF-7 cells came out at 0.18 nM.
